The target in assay [1] is Tyrosine-protein kinase Fer (Homo sapiens) (UniProt P16591). Particulars: at 1 µM.
For assay [2], the target named is Tyrosine-protein kinase Fes/Fps (Homo sapiens) (UniProt P07332). Particulars: at 0.1 µM.
Assay [3] has the same target. The note with it: at 1 µM.
Assay [4] concerns the target Fibroblast growth factor receptor 1 (Homo sapiens) (UniProt P11362). The note with it: at 0.1 µM.
Assay [5] has the same target. The note with it: at 1 µM.
The target of assay [6] is Fibroblast growth factor receptor 2 (Homo sapiens) (UniProt P21802). Particulars: at 0.1 µM.
Assay [7] shares this target. The note with it: at 1 µM.
Assay [8] deals with Fibroblast growth factor receptor 3 (Homo sapiens) (UniProt P22607). The note with it: at 0.1 µM.
For assay [9] the target is unchanged. The note with it: at 1 µM.
Assay [10] has as its target Fibroblast growth factor receptor 4 (Homo sapiens) (UniProt P22455). The note with it: at 0.1 µM.
For assay [11] the target is unchanged. The note with it: at 1 µM.
For assay [12], the target named is Tyrosine-protein kinase Fgr (Homo sapiens) (UniProt P09769). The note with it: at 0.1 µM.
Assay [13] shares this target. The note with it: at 1 µM.
Assay [14] addresses Vascular endothelial growth factor receptor 1 (Homo sapiens) (UniProt P17948). The note with it: at 0.1 µM.
For assay [15] the target is unchanged. The note with it: at 1 µM.
In assay [16] the target is Receptor-type tyrosine-protein kinase FLT3 (Homo sapiens) (UniProt P36888). Particulars: at 0.1 µM.
The target is the same in assay [17]. Particulars: at 1 µM.
Assay [18] has as its system T1, Receptor-type tyrosine-protein kinase FLT3 (Homo sapiens), P36888 [D835Y].
T1 sequence (whole entry): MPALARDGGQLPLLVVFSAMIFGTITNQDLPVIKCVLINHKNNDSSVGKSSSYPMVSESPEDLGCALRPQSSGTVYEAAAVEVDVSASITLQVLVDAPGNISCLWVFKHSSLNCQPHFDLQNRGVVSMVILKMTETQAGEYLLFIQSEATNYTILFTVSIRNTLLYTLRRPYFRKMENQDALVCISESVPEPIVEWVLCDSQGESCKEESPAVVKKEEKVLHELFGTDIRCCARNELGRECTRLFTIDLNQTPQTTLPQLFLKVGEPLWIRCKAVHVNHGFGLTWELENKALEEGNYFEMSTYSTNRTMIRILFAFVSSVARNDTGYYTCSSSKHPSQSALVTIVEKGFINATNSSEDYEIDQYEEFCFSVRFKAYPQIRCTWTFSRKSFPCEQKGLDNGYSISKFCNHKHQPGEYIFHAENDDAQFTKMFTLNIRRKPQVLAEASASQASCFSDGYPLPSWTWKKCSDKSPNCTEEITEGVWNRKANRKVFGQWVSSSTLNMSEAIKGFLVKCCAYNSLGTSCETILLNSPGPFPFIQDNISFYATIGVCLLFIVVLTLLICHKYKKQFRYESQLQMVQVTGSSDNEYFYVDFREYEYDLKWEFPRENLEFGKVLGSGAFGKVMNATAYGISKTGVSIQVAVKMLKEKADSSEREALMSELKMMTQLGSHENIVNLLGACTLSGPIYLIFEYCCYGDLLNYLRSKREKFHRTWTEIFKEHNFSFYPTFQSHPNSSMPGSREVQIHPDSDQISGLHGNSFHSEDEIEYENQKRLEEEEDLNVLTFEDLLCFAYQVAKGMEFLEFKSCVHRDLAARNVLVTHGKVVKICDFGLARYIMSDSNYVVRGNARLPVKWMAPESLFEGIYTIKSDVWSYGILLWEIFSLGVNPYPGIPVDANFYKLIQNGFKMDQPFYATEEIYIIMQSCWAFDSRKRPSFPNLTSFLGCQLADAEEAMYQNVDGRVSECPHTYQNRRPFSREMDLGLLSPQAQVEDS
The note with it: at 0.1 µM.

Assay [19] has as its target Non-receptor tyrosine-protein kinase TYK2 (Homo sapiens) (UniProt P29597). Particulars: at 1 µM.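 Further: values are mean percent inhibition of TYK2 kinase.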
In assay [20] the target is T2, Tyrosine-protein kinase receptor TYRO3 (Homo sapiens) (UniProt Q06418).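 Further: reported percentages are averaged inhibition values of TYRO3 kinase activity.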
T2 sequence (whole entry): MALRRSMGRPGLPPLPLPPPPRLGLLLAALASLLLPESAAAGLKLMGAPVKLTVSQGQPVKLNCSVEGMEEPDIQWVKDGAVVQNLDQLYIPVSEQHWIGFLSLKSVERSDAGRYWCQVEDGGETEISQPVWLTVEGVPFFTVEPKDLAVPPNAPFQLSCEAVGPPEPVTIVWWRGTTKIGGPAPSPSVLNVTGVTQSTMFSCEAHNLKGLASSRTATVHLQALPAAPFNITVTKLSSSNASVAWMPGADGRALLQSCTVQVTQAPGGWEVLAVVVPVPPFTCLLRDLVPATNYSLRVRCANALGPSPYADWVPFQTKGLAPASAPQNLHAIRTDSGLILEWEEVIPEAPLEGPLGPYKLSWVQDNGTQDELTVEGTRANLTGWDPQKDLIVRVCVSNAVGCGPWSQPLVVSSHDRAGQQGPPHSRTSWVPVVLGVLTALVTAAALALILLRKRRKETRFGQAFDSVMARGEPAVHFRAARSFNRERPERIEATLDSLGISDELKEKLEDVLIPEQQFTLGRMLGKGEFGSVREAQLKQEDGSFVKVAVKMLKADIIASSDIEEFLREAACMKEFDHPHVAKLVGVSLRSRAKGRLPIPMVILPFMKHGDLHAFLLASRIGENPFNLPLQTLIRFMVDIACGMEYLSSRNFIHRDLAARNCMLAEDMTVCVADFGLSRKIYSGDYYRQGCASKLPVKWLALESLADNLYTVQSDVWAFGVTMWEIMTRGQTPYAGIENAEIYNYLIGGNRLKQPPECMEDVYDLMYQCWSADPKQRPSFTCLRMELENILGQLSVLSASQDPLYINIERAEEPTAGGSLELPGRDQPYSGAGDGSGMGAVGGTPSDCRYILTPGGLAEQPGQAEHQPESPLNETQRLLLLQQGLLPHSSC
Particulars: at 0.1 µM.

SMILES strings stand for the structures. For part of these data: Shown are results outside the selection of strong results, which stands elsewhere. The entries are a selection whose mix differs from that of the whole data set.

This passage reports inhibition results from ChEMBL document CHEMBL1961873, “Compounds: GSK PKIS; Assays: Nanosyn kinase panel” (2012).

Chain of UniProt P16591 (P16591 whole entry, looked up): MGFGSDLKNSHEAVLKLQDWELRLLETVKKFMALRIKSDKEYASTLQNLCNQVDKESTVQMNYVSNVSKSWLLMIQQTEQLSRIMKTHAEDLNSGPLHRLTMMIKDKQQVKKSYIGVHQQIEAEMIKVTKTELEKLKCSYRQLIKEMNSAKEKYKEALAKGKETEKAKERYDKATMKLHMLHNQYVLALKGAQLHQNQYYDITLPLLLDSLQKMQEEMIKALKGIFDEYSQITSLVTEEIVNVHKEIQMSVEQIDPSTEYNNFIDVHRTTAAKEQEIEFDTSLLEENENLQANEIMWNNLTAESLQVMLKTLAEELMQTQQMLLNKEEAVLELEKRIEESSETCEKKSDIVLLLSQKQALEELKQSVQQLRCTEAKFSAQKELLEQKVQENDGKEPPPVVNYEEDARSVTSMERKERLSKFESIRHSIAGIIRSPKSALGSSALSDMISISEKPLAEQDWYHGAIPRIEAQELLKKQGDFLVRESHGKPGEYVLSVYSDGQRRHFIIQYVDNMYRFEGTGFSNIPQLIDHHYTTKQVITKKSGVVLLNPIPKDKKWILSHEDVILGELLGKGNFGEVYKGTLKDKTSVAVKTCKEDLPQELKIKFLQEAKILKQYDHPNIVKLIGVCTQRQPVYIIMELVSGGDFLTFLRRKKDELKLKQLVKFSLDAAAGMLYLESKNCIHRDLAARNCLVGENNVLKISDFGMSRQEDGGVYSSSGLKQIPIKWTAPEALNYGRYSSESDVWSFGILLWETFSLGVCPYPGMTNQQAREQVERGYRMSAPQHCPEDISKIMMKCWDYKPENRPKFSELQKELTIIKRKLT
Chain of UniProt P17948 (P17948 whole entry): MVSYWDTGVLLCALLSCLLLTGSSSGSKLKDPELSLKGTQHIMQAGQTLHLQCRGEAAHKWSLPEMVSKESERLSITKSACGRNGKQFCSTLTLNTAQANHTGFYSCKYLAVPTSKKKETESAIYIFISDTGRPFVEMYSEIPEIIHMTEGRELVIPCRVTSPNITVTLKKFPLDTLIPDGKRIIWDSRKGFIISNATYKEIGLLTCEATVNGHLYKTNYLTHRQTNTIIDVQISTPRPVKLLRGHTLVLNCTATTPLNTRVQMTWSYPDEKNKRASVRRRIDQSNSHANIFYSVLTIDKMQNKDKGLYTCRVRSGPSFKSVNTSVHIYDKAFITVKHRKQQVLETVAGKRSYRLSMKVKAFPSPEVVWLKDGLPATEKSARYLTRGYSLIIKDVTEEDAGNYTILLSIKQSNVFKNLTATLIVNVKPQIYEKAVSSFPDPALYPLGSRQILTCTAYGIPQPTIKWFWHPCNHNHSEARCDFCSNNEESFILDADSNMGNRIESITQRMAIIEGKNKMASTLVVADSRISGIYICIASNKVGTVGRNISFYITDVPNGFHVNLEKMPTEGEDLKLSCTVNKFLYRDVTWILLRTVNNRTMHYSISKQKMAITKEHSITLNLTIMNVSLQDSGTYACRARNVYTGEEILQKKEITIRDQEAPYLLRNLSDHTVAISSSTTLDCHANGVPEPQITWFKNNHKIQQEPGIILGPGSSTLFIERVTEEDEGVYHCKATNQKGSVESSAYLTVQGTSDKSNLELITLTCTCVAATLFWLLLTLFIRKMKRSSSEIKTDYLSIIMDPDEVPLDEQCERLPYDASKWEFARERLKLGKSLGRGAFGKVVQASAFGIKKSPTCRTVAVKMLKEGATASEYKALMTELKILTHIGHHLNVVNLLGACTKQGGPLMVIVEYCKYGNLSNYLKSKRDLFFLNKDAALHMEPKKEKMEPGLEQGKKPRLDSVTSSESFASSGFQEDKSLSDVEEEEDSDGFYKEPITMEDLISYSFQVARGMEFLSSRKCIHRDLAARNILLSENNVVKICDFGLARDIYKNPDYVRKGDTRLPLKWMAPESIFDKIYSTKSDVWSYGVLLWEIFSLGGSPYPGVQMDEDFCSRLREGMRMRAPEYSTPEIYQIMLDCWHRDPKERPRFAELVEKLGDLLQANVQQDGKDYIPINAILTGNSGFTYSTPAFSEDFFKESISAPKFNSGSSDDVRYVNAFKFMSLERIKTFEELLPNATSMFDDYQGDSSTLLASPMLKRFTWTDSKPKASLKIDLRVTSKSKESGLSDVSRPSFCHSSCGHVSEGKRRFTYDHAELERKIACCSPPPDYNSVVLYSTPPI
Chain of UniProt P22455 (P22455 whole entry, looked up): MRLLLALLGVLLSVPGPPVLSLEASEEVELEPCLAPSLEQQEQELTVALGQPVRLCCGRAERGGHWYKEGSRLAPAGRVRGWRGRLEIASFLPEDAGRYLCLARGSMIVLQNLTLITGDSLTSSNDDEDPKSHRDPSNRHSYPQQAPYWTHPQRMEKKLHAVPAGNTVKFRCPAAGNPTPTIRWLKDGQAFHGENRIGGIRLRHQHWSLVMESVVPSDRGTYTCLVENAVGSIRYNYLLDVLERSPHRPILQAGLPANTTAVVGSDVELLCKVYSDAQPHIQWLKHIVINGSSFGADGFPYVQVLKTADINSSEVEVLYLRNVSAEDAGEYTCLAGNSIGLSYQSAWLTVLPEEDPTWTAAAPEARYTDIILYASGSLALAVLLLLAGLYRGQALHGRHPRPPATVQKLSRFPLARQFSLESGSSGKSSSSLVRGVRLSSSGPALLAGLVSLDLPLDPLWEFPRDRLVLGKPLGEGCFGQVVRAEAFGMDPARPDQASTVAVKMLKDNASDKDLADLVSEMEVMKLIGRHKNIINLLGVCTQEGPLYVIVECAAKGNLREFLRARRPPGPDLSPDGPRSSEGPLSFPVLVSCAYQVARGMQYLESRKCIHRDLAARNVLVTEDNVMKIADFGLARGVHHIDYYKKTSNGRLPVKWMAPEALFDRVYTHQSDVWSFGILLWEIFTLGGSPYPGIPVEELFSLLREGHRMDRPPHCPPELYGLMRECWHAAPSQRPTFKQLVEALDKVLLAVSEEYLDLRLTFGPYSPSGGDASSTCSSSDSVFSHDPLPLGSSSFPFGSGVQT
Chain of UniProt P29597 (P29597 whole entry): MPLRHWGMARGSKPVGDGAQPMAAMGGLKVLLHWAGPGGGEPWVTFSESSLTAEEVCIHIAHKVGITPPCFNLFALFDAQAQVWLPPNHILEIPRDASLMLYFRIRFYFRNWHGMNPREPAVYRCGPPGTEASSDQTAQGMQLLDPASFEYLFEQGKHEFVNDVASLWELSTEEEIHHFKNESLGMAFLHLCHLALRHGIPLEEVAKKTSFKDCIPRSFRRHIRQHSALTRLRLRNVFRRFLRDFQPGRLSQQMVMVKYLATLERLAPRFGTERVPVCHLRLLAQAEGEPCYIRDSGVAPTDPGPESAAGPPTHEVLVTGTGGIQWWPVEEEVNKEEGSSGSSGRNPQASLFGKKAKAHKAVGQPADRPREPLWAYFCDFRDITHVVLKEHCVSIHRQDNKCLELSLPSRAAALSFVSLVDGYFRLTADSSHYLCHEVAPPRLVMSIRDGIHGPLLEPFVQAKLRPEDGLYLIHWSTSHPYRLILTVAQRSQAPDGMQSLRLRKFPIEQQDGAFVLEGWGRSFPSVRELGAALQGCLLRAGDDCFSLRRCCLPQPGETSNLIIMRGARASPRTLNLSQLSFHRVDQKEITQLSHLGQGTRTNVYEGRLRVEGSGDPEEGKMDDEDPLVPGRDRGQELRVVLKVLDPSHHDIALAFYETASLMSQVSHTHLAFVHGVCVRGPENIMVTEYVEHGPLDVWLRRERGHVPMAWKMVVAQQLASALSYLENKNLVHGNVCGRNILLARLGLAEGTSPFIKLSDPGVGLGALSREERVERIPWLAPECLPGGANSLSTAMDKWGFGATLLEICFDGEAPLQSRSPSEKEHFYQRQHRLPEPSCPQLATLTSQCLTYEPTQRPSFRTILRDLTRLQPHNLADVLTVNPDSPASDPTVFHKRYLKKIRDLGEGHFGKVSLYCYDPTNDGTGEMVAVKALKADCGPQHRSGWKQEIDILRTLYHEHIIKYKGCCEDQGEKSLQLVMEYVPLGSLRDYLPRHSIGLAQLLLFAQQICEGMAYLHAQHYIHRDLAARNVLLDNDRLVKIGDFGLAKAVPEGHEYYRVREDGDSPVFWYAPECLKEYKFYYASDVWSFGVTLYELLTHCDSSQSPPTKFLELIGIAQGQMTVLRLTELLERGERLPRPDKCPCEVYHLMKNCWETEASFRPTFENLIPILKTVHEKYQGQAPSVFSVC
Chain of UniProt P09769 (P09769 whole entry, looked up): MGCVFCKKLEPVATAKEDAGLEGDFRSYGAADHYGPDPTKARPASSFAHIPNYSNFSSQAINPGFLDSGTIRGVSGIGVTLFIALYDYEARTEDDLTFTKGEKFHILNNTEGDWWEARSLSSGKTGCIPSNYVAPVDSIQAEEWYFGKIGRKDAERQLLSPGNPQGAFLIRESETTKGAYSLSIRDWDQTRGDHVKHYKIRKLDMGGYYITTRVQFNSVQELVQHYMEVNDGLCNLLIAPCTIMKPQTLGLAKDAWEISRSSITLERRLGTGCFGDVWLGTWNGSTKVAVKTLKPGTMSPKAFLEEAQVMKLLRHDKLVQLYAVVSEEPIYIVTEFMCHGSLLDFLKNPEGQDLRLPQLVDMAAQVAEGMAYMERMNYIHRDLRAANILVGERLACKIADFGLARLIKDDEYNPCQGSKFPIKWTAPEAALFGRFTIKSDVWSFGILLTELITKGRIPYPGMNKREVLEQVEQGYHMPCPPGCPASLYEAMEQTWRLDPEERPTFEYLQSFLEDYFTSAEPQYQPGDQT

One may read the inhibition as the relative decrease from the control value, in per cent. In the case of `COc1ccccc1Oc1nccc(-c2c(-c3ccc(F)cc3)ncn2C2CCNCC2)n1`, the inhibition in assay [1] worked out at 11.2%; in assay [2], 4%; in assay [3] it was 4.21%; in [4], 3.48%; in [5] it was 6.26%; in assay [6], 6.73%. The inhibition in assay [7] is 8.24%; in assay [8] it was 6.4%; in assay [9], 8.02%; in assay [10], 0.42%; in [11], -0.23%; in assay [12], 3.48%. The inhibition in assay [13] is 4.97%; in assay [14], -1.57%; in assay [15], 2.13%; in assay [16], 0.78%; in assay [17], 4.04%; in assay [18], -2.64%. Moreover, the inhibition in assay [19] is -3.01%; in [20], 1.76%.

With `Fc1ccc(-c2ncn(C3CCNCC3)c2-c2ccnc(Oc3ccc(Cl)cc3)n2)cc1`, the inhibition in assay [1] is 9.05%; in [2], -0.01%; in [3], 0.02%; in assay [4], -5.16%; in [5], -0.19%; in assay [6] it was 0.39%. For the same compound, the inhibition in assay [7] was -0.95%; in [8], 0.88%; in assay [9] it was -0.04%; in assay [10], 4.39%; in assay [11] it was -1.06%; in [12], 2.09%. Moreover, the inhibition is 2.83% in assay [13]; -2.5% in assay [14]; -2.3% in assay [15]; -0.48% in assay [16]; 8.91% in assay [17]; 1.24% in assay [18]. Also, the results for the inhibition in assay [19] and in [20] were -2.89% and -0.38%, respectively.

Take `Fc1ccc(-c2ncn(C3CCNCC3)c2-c2ccnc(Oc3cccc(F)c3)n2)cc1`: the inhibition in assay [1] turned out to be 12.8%; in assay [2], 3.78%; in assay [3] it was 3.56%; in [4] it was 5.54%; in assay [5], 11%; in assay [6] it was 10.8%. The inhibition was 12.4% in [7]; 13.8% in assay [8]; 14.8% in assay [9]; 3.05% in assay [11]; 7.37% in [12]; 12.1% in assay [13]. Moreover, the inhibition was 1.26% in [14]; 0.92% in assay [15]; 3.44% in assay [16]; 5.14% in [17]; 4.09% in [18]; -2.32% in assay [19]. In addition, the inhibition in assay [20] is 1.36%.

As for `CS(=O)(=O)c1ccc(Oc2nccc(-c3c(-c4ccc(F)cc4)ncn3C3CCNCC3)n2)cc1`, the inhibition was 4.41% in [1]; 4.3% in [2]; 1.79% in assay [3]; -0.91% in [4]; 3.98% in assay [5]; 1.58% in assay [6]. Besides, the inhibition was 3.83% in assay [7]; 2.42% in [8]; 2.73% in assay [9]; 1.19% in assay [10]; 3.97% in assay [11]; 1.66% in [12]. The inhibition in assay [13] was 2.81%; in [14] it was -0.67%; in assay [15], 0.64%; in assay [16], -0.64%; in [17] it was 2.81%; in assay [18], -1.9%. Also, the inhibition in assay [19] was -1.72%; in [20] it was 2.73%.

As to `Fc1ccc(-c2ncn(C3CCNCC3)c2-c2ccnc(Oc3cccc(C(F)(F)F)c3)n2)cc1`, the inhibition amounted to 3.43% in assay [1]; 5.02% in [2]; 4.61% in assay [3]; 6.49% in [4]; 5.84% in assay [5]; 7.58% in assay [6]. The inhibition was 11% in [7]; 6.99% in [8]; 7.98% in [9]; -1.37% in [10]; 1.92% in assay [11]; 4.09% in assay [12]. In addition, the inhibition in assay [13] was 6.39%; in assay [14] it was 1.55%; in assay [15] it was 1.06%; in [16] it was 8.04%; in [17], 5.18%; in assay [18], -5.75%. Further, the results for the inhibition in [19] and in assay [20] were -2.19% and 2.35%, respectively.

On to `O=C1NC(=O)C(c2cccc([N+](=O)[O-])c2)=C1Nc1cc(Cl)c(O)c(Cl)c1`, for which the inhibition in [1] was 0.45%; in assay [2], 0.77%; in assay [3], 0.99%; in assay [5] it was 7.05%; in assay [6] it was 0.92%; in [7] it was 21.7%. Besides, the inhibition in [8] stood at 1.22%; in [9], 14.5%; in assay [10], 3.72%; in [11], 0.22%; in assay [12] it was 2.75%; in [13], 3.7%. Further, the inhibition in assay [14] was -2.65%; in assay [15] it was 1.09%; in [16], 4.15%; in assay [17], 3.35%; in assay [18], 0.48%; in assay [19], 2.74%. Besides, in assay [20], the inhibition was -0.41%.

`COc1ccccc1C1=C(Nc2ccccc2)C(=O)NC1=O`: the inhibition was 10.2% in assay [1]; 2.63% in assay [2]; 3.59% in assay [3]; 3.4% in [4]; 2.56% in assay [5]; 1.53% in assay [6]. Further, the inhibition turned out to be 6.4% in assay [7]; 5.26% in assay [8]; 3.74% in assay [9]; 0.3% in assay [10]; 2.28% in assay [11]; 4.72% in [12]. In addition, the inhibition in assay [13] is 8.83%; in [14] it was 1.88%; in assay [15], 3.09%; in [16], 2.12%; in assay [17] it was 2.33%; in assay [18], 2.17%. Also, the inhibition was -1.53% in assay [19] and 2.44% in assay [20].
